# Over roughly 33,000 sequences, “E-score (-0.5 to 0.5)” has its median near -0.053; the highest 2% begin near 0.37. The list shows a part of the results.
# Target: Hap1 (UniProt P0CE41)
# Experiment: PBM E-score (8-mer binding enrichment) (E-score (-0.5 to 0.5)); higher = stronger / more preferred TF binding; most listed sequences are background and not binding sites
# Conditions: protein concentration: 200 nM; construct: GST-DNA-binding domain
# Method: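 Universal 'all 10-mer' protein binding microarrays (Agilent AMADID 015681) probed with GST-tagged S. cerevisiae TFs (full-length or DBD) made by in vitro transcription/translation (PURExpress), about 100-200 nM. Bound TF was detected with fluorescent anti-GST. Each ungapped 8-mer (which stands for itself and its reverse complement) is scored by the PBM enrichment score (E-score), a modified Wilcoxon-Mann-Whitney statistic from -0.5 to +0.5, computed with the Universal PBM Analysis Suite. Scale: above 0.35 generally sequence-specific binding.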
# UniProt P0CE41, sequence (P0CE41 whole entry): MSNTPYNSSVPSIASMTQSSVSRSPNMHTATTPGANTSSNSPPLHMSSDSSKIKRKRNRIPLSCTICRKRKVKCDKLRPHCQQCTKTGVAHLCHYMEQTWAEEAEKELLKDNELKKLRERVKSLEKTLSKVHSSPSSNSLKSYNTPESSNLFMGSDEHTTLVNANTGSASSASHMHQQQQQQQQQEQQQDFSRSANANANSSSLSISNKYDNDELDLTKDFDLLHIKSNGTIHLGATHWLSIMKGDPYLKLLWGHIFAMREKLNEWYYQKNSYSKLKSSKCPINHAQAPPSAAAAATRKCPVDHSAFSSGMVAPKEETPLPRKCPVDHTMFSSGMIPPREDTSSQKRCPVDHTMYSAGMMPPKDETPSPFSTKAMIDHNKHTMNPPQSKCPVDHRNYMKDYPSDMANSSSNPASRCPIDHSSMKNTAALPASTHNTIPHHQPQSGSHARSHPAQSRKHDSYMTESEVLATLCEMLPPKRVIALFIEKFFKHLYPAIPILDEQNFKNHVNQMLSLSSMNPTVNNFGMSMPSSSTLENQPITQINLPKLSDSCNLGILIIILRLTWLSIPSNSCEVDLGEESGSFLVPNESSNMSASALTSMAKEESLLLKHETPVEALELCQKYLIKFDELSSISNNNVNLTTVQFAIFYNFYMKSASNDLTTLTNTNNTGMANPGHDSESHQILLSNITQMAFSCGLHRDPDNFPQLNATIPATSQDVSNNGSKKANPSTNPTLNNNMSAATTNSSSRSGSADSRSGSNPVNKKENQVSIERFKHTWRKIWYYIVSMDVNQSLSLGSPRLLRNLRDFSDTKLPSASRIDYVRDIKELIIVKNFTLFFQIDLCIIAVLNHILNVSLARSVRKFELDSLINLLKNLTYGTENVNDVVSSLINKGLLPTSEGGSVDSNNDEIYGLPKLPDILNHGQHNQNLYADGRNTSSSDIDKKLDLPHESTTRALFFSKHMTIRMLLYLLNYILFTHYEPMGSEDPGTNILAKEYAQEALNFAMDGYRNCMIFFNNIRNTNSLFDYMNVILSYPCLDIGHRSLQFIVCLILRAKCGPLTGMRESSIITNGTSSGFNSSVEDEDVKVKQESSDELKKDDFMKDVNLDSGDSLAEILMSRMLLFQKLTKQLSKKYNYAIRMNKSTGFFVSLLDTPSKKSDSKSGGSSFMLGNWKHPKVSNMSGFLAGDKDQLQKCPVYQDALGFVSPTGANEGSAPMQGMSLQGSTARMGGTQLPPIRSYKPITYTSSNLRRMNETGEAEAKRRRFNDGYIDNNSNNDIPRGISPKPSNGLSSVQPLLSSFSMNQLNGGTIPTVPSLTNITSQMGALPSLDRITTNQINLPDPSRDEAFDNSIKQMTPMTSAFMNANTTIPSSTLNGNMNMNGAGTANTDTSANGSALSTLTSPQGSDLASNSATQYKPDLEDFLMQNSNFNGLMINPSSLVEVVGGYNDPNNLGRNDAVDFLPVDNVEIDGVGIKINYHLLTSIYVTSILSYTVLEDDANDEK
row,Sequence,PBM E-score
1,CCGACGGC,0.298
2,CGTGATGC,-0.0405
3,CGGGATGC,0.123
4,CGACGGAC,0.319
5,GATGTGTA,-0.115
6,CCATTGGA,-0.205
7,CTTTGCGC,-0.00074
8,CATTTCGC,0.165
9,ATCAAGCG,0.0373
10,AAAATGAA,-0.264
11,ACAATGTG,-0.193
12,GTTTGAAA,-0.0169
13,CGCTTACC,-0.00034
14,GCCACATA,-0.136
15,ACATGCGT,-0.105
16,CCTTAACG,0.156
17,AAATGCGG,0.255
18,CACCACCA,0.00125
19,CGCTTCCA,-0.0186
20,GTTTGGAA,-0.257
21,ATTTTACC,0.201
22,GGACAGAC,0.0489

row,Sequence,PBM E-score
1,CGCGACAC,0.126
2,ATAGGCGG,0.239
3,CGAGGAAG,-0.0118
4,AGTGCGTA,-0.0903
5,GAAGGATC,-0.114
6,ACCACGTA,-0.282
7,CGTGAGCA,-0.0635
8,CAATACCG,0.266
9,ACTTCTCA,-0.318
10,GACAGTGC,0.0705
11,CCTTATGA,-0.074
12,CCTTTCAG,-0.151
13,GGAGCGCA,-0.0936
14,CAAGTTAC,0.0893
15,ATCATCTG,-0.0614
16,AAGATTTC,0.0896
17,ACCATTTG,-0.0604
18,TCAGACCA,-0.138
19,GAACTAAA,0.094
20,AGCTTGAA,-0.163
21,CGTGTCAA,-0.153
22,CAGTCCCG,0.2

row,Sequence,PBM E-score
1,GCGATTAA,0.201
2,AACTATAT,-0.0114
3,AGTAGCTG,-0.223
4,CGTGCTAG,-0.25
5,GAGGCGTA,0.0847
6,CATTTCCG,0.352
7,TAGTCTCA,-0.134
8,AAGGGTGC,-0.0755
9,ACCCCACA,0.0369
10,CAAAAAGA,-0.0968
11,CGTTAGGC,0.115
12,ACCCAGAG,-0.127
13,CTACGACA,-0.168
14,CCCGCCAG,0.0174
15,CTCGGAGC,0.322
16,AACCTACT,0.0423
17,AGCTCCAA,-0.276
18,CCTGGCAA,-0.156
19,GGCCTCGA,-0.193
20,ATTACCGC,0.274
21,GTCACTAA,-0.0788
22,AGGCGCGA,-0.0197

row,Sequence,PBM E-score
1,ATCAACCC,0.108
2,GCTTCCCC,0.0148
3,TCAAGGGA,-0.0693
4,GGAGATCC,0.138
5,AATGTCTA,-0.279
6,TTGCAAAA,-0.00902
7,CACCGACC,0.192
8,CAAGCAAG,-0.13
9,AATGTTAA,-0.109
10,AGACCGCA,0.132
11,ACTGCGAT,-0.0197
12,CATTTGGA,0.0115
13,AGAGTTCA,-0.273
14,AGGGCTGG,-0.101
15,AACATATA,0.0491
16,CTAAGTTC,-0.154
17,GACCCGTC,0.0739
18,CGGGGGGA,0.189
19,ATAATGGA,0.00101
20,ACACAACC,-0.175
21,GTCAGAAA,-0.387
22,CATGATTC,-0.133

row,Sequence,PBM E-score
1,GGCAAGTA,-0.0484
2,AATAAAAC,0.0481
3,CGTGCAGC,0.0302
4,GGGGGCCA,0.0793
5,ATTACTAA,-0.0442
6,ACCCATTC,-0.00249
7,ATACTATG,0.00605
8,ACATGCTG,-0.314
9,GTATTCCA,-0.101
10,CGAAGTGC,0.0814
11,CCTAGGCG,-0.302
12,TTACTAAA,-0.0968
13,AATTCACA,-0.0888
14,CAACGTTA,-0.127
15,GACGGGGC,0.0768
16,CTACACAC,-0.193
17,AATAAGCG,-0.0603
18,CCCGTAGC,0.0211
19,GCAATGCC,-0.037
20,CCACGTAA,-0.139
21,ACCGGATC,0.296

# From the supplement of paper PMC3334620
